In the antibiotic and cytotoxicity screens of Wong et al. (2023):
Some of the results follow.

How the values were obtained:
HSkMC = human skeletal muscle cells; experiment: cytotoxicity call (relative viability < 0.9); conditions: 10 µM
HepG2 = experiment: cytotoxicity call (relative viability < 0.9); conditions: 10 µM
S. aureus RN4220 = experiment: growth inhibition call (relative growth <= 0.2); conditions: 50 µM

| Compound | cytotoxicity call (HSkMC) | cytotoxicity call (HepG2) | growth inhibition call (S. aureus RN4220) |
| --- | --- | --- | --- |
| COc1ccc(NC(=O)Nc2ccc3c(c2)C(=O)N([C@H](C)CO)C[C@@H](C)[C@@H](CN(C)S(=O)(=O)c2ccc(Cl)cc2)OCCCC[C@@H](C)O3)cc1 | inactive | inactive | inactive |
| C[C@H](CO)N1C[C@H](C)[C@@H](CN(C)S(C)(=O)=O)Oc2ncc(C#CC3(O)CCCC3)cc2C1=O | inactive | inactive | inactive |
| NCC[C@@H]1CC[C@H](NC(=O)C2CC2)[C@H](CO)O1 | inactive | inactive | inactive |
| Cc1noc(C)c1S(=O)(=O)N(C)C[C@@H]1OCCCC[C@H](C)Oc2ccc(NC(=O)Nc3ccc(F)cc3)cc2C(=O)N([C@H](C)CO)C[C@H]1C | inactive | inactive | inactive |
| COc1ccc2c3c(n(c2c1)C)[C@H](CO)N(C[C@]13CN(C1)S(=O)(=O)C)C(=O)CN(C)C | inactive | inactive | inactive |
| CC(C)N1CC2(CN([C@@H](C)c3ccc(Cl)cc3)C2)Oc2c(NC(=O)c3ccncc3)cccc2C1=O | inactive | inactive | inactive |
| C[C@H]1CCCCO[C@@H](CN(C)C(=O)C2CCCCC2)[C@@H](C)CN([C@@H](C)CO)C(=O)c2cc(NC(=O)Cc3ccccc3)ccc2O1 | inactive | inactive | inactive |
| COCC(=O)Nc1ccc2c(c1)C(=O)N(C)C[C@H](OC)[C@H](C)CN(C(=O)c1ccccc1F)[C@H](C)CO2 | inactive | inactive | inactive |
| CN(C)C(=O)C[C@H]1CC[C@H](NC(=O)C2CCOCC2)[C@@H](CO)O1 | inactive | inactive | inactive |
| Cc1ccc(F)cc1NC(=O)CN | inactive | inactive | inactive |
| C[C@@H]1CCCCO[C@H](CN(C)Cc2ccc3c(c2)OCO3)[C@H](C)CN([C@H](C)CO)C(=O)c2cc(NC(=O)Cc3ccccc3)ccc2O1 | inactive | inactive | inactive |
| C[C@H]1CN([C@@H](C)CO)C(=O)c2cccc(NS(=O)(=O)c3ccc(Cl)cc3)c2O[C@@H]1CN(C)C(=O)Nc1cccc2ccccc12 | inactive | inactive | inactive |
| C[C@@H]1CN([C@H](C)CO)C(=O)c2cccc(NS(C)(=O)=O)c2O[C@H]1CN(C)C(=O)Nc1ccccc1 | inactive | inactive | inactive |
| Cc1noc(C)c1S(=O)(=O)Nc1ccc2c(c1)CC(=O)N([C@H](C)CO)C[C@@H](C)[C@@H](CN(C)C(=O)NC1CCCCC1)O2 | inactive | inactive | inactive |
| CC(C)CC#Cc1ccc2c(c1)O[C@@H](CN(C)C(=O)c1ccncc1)[C@H](C)CN([C@H](C)CO)S2(=O)=O | inactive | inactive | inactive |
| NCc1cccc(COc2ccccc2)c1 | inactive | inactive | inactive |
| CC=Cc1ccc2n(c1=O)C[C@@H]1[C@@H](CO)[C@H](C(=O)NCCCN3CCOCC3)[C@H]2N1Cc1cocn1 | inactive | inactive | inactive |
| COc1ccc(NC(=O)N(C)C[C@H]2OCCCC[C@@H](C)Oc3ccc(NS(=O)(=O)c4ccc(OC)cc4)cc3C(=O)N([C@@H](C)CO)C[C@H]2C)cc1 | inactive | inactive | inactive |
| C[C@@H]1CN([C@@H](C)CO)C(=O)Cc2cc(NS(=O)(=O)c3ccc(Cl)cc3)ccc2O[C@@H]1CN(C)S(=O)(=O)c1cn(C)cn1 | inactive | inactive | inactive |
| Cc1ccc(S(=O)(=O)Nc2cccc3c2O[C@@H](CN(C)S(=O)(=O)c2cccs2)[C@H](C)CN([C@@H](C)CO)C3=O)cc1 | inactive | inactive | inactive |
| CCNC(=O)[C@@H]1[C@@H](CO)[C@@H]2Cn3c(ccc(C4=CCCC4)c3=O)[C@H]1N2S(=O)(=O)c1cn(C)cn1 | inactive | inactive | inactive |
| CC(=O)N[C@@H](Cc1cccc(F)c1)C(=O)O | inactive | inactive | inactive |
| CCCNC(=O)N(C)C[C@H]1Oc2ncc(-c3ccc(C(=O)N(C)C)cc3)cc2C(=O)N([C@@H](C)CO)C[C@@H]1C | inactive | inactive | inactive |
| C[C@@H]1CCCCO[C@H](CN(C)C(=O)Nc2ccc(F)cc2)[C@H](C)CN([C@H](C)CO)C(=O)c2cc(NC(=O)Nc3ccc(F)cc3)ccc2O1 | inactive | inactive | inactive |
| C[C@@H]1CN([C@H](C)CO)C(=O)c2cc(NS(=O)(=O)c3cn(C)cn3)ccc2O[C@@H](C)CCCCO[C@@H]1CN(C)S(C)(=O)=O | inactive | inactive | inactive |
| CO[C@H]1CN(C)C(=O)c2ccc(NS(=O)(=O)CC(F)(F)F)cc2OC[C@H](C)N(Cc2cccnc2)C[C@@H]1C | inactive | inactive | inactive |
| C[C@@H]1CN([C@H](C)CO)C(=O)c2cc(NS(=O)(=O)c3cn(C)cn3)ccc2O[C@@H]1CN(C)S(=O)(=O)c1cccs1 | inactive | inactive | inactive |
| Cc1nnc(SCC2=C(C(=O)[O-])N3C(=O)C(NC(=O)Cn4cnnn4)C3SC2)s1.[Na+] (centres undefined) | inactive | inactive | active |
